Some of the results follow.
System: PfSIP2 AP2 domain 1 (GST-tagged)
Assay: gcPBM binding intensity (ln(normalized median fluorescence intensity)); higher = stronger DNA binding
Summary of the method: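 Probes on an Agilent 4 × 180k array were primer-extended, double-stranded and 36 bp long, taken from intergenic genomic regions, with negative controls added. GST-tagged P. falciparum DNA-binding domains from E. coli, about 25 μg on average, were applied to the array for 1 h in 1× PBS containing 1% milk, 0.2 mg/ml BSA, 0.5% salmon testes DNA and 0.03% Triton X-100. Binding intensity, obtained after Alexa488 anti-GST antibody detection and a 488 nm scan, is the highest Masliner-normalised natural-log median intensity across replicate spots of either probe orientation.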

Sequence	gcPBM binding intensity (ln)
TGATGTTGTAACAAAAGTACACACACATTTCTATAA [XGTACX_site5837]	7.11
TTTTCAATTAATAATACACACATGTATATATCATTA [CACACA_site7539]	6.92
TTTTTCTTTTGATGTTGTACATATATATTATATATA [XGTACX_site2754]	7.25
AAGAAAAAAAAAAAAAATATATATATAAGAACATAT [TGCATGCA_negctrl_site131]	6.93
GATAAAACGTTATGCACACGTACGTGGGTATTTATA [CACACA_site4954]	7.28
AACTATAAAAAAAATACACACATTACCAAAAATATA [CACACA_site1529]	6.92
AATCTGATTTGTATATGTACACAAATATTTTTATTT [XGTACX_site5295]	6.89
TTTAATAATTATTAAAGTACAAAATAAATATTGAAT [XGTACX_site7538]	7.04
TATAAAAAAATATATATATATATATATATATAAATA [TGCATGCA_negctrl_site22]	7.64
TTATGTAAAATCGATACATGCATTAATCATTTTATA [TGCATGCA_site493]	7.03
TCATATTTCCATAGGAGTACATAAAAAAAATAATAT [XGTACX_site7601]	7.06
TATGATATGTTATACACACACGTATTTATGAATTGA [CACACA_site7591]	6.99
TTCTTTATTATATGCACACGTACATATAATATATAT [CACACA_site2018]	7.77
ATTTATATTAATGGATAAATAAATGTGTACTTGATA [CACACA_negctrl_site24]	6.96
ATCAACAAAACATACACACACATATAGATTTATATA [CACACA_site7415]	7.25
AAAAAAAAAAAACACACACACATATATATATATATA [CACACA_site732]	9.34
AATTAGCTATTTAAAAATATATAAAATTTATATATA [CACACA_negctrl_site390]	6.72
GAAATAGAGAGACACACACACATATATTTATGTATT [CACACA_site7794]	6.79
ATCATATTGAATATTTAACACACATTTCGCTTAATT [CACACA_site8652]	7.15
TATATATATAAAAGTTGTACAGTGTTTTATATAGTT [XGTACX_site7085]	8.13
TTATACTAAATGAACACACACACATCTATATTTATA [CACACA_site6199]	6.98
AATTAAAATAATAATACACACATCATAGAAAAAGAC [CACACA_site292]	7.96
AAATTAGACTATAATACACACATAAAAAAAAAATCA [CACACA_site7672]	7.08
AATTGGGTAGGACATGCATGAGAAATTAATATTGCA [TGCATGCA_site356]	7.17
